About 14,000 (4.5%) of roughly 310,000 compounds showed an effect of 50% or more. Effects have a minus sign here. This is one part of the list.
Target: human ether-à-go-go-related gene (hERG) potassium channel (human, UniProt Q12809)
Assay: primary screen, population patch clamp on CHO cells stably expressing hERG
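Further: peak tail current of the secondary pulse compared with the same well before compound.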

Sequence of human ether-à-go-go-related gene (hERG) potassium channel (Q12809 whole entry, looked up): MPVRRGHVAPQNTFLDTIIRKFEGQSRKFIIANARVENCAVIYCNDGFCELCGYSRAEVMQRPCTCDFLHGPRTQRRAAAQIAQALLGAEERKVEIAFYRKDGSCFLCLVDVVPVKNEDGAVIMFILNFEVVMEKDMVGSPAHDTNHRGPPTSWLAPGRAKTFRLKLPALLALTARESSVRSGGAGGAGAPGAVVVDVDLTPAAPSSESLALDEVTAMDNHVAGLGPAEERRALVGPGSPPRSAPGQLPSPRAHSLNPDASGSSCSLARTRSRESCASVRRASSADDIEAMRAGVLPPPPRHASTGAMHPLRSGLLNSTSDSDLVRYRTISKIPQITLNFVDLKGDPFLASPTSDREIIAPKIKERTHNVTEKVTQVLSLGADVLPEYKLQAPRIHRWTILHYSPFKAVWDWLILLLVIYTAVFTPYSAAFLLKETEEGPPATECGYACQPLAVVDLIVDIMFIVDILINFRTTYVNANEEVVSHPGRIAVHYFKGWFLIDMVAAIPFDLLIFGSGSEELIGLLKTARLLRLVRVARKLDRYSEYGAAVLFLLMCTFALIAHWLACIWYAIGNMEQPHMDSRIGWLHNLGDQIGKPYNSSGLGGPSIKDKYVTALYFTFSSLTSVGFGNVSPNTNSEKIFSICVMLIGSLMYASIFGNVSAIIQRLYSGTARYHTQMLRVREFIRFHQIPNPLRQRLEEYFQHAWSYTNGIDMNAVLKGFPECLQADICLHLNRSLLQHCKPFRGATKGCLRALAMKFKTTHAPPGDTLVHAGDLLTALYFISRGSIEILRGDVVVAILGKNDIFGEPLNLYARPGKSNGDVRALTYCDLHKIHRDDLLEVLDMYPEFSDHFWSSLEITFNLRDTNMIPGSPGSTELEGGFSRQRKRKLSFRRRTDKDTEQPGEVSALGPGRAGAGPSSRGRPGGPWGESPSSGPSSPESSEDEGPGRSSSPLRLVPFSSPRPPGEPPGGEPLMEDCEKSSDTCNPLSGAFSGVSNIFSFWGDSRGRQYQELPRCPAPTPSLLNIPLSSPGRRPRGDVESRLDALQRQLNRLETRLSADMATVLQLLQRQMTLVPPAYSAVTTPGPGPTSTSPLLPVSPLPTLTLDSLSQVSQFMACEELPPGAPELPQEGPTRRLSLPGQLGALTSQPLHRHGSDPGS

Structure (SMILES) | hERG current change (%, negative = inhibition) at 10uM [%]
COCCCN1C(=O)C(=O)/C(=C(/O)c2ccc(S(=O)(=O)N3CCOCC3)cc2)C1c1cccc(Cl)c1 (centres unmarked) | 1.25
Cc1nc(S(=O)(=O)Nc2ccccc2C(=O)NCC2CC2)cn1C | 12.4
COc1ccccc1CNc1nc(C)c(C(C)=O)s1 | 8.49
CS(=O)(=O)N1CCN(C(=O)c2ccccc2F)CC1 | -0.0275
Cc1ccc(S(=O)(=O)N2CCCC(C(=O)N(Cc3cccs3)C3CC3)C2)cc1 (centres unmarked) | -67.7
COc1ccccc1N1CCN(C(=O)CCSCc2ccccc2F)CC1 | 4.41
CN1CCN(c2ccc(NC(=O)c3ccc(Cl)cc3)cn2)CC1 | -53.1
O=C(NNc1c(Cl)cncc1Cl)c1cccs1 | 11.5
COc1cccc(N2C(=O)C(c3ccccc3)=C(c3nc4ccccc4s3)C2NC(C)=O)c1 (centres unmarked) | -3.14
CCCOc1ccc(-c2c(C(=O)N/N=C/c3ccc(OC)cc3)nnn2-c2nonc2N)cc1 | -1.04
CC(=O)c1sc(NC(=O)CN2C(=O)C3CC=CCC3C2=O)nc1-c1ccccc1 (centres unmarked) | -23.7
CCC(C)Sc1nc2ccccc2n1CC(=O)O (centres unmarked) | 8.33
COc1cc2c(cc1OC)C(c1ccccc1)NCC2 (centres unmarked) | 18.8
Cc1cccc(NC(=O)c2ccc([N+](=O)[O-])o2)n1 | -8.5
Clc1ccc(C(Cn2ccnc2)OCc2c(Cl)cccc2Cl)c(Cl)c1 (centres unmarked) | -32
Cc1ccc(OCC(=O)N2CCN(C(=O)c3cccs3)CC2)cc1 | -34.8
O=C1c2ccccc2C(O)(c2ncc[nH]2)N1CCc1ccccc1 (centres unmarked) | -13.8
CN(C(=O)COc1ncnc2sccc12)c1ccccc1 | 12.8
CCCSc1nc(C)cc(=O)[nH]1 | 15.9
O=c1[nH]nc(-c2ccccc2)c2ccccc12 | -5.57
O=C(NNc1ccccc1)/C(=C\c1cccnc1)NC(=O)c1ccccc1 | -6.49
O=C(Nc1cccnc1)c1cc2cc(Br)ccc2o1 | 8.93

Structure (SMILES) | hERG current change (%, negative = inhibition) at 10uM [%]
Cc1ccc(CCNC(=O)c2cc(S(=O)(=O)N3CCOCC3)cn2C)cc1 | -14.6
Cc1ccc(/C=N/NC(=O)c2nnn(-c3nonc3N)c2CN(C)c2ccccc2)s1 | 1.15
O=C(COC(=O)/C=C/c1ccccc1Cl)NCc1ccco1 | 60.5
Cc1cc(O)c(C(=O)Cc2csc(C)n2)c(O)c1 | -6.54
O=C(COC(=O)/C=C/c1ccc(Cl)cc1Cl)NCCC1=CCCCC1 | -11.8
COCCCNC(=O)c1cc2c(=O)n(C)c3ccccc3c2n1C | -7.05
COc1ccc2c(c1)C(=O)N1[C@H]3c4cc(OC)ccc4OC[C@@H]3[C@H](c3ccccc3)[C@]1(C)C(=O)N2 | 9.06
CN(C)S(=O)(=O)c1ccc(C(=O)Nc2ccc(F)cc2F)cc1 | -6.6
O=C(O)C1CC=CCC1C(=O)Nc1ccccc1C(=O)N1CCN(c2ccc(F)cc2)CC1 (centres unmarked) | 14.6
CCNC(=O)CC1C(=O)N(CC)C(=S)N1NC(=O)c1ccc(Cl)cc1 (centres unmarked) | -10.6
CCC(=O)N1CCc2cc(Br)cc(S(=O)(=O)N3CCC(C(=O)NC(C)C)CC3)c21 | 7.93
CCOC(=O)c1c(C)c(C(=O)N2CCN(C(=O)c3ccco3)CC2)c(C)n1C | -15.8
CCCCC(=O)Nc1cccc(C(=O)Nc2ccccc2C(=O)O)c1 | 18.2
O=C1CCc2cc(S(=O)(=O)N3CCN(c4ccc(F)cc4)CC3)cc3c2N1CC3 | -1.23
O=C(O)Cc1ccc(NC(=O)c2ccc3c(c2)C(=O)N(CC2CCCO2)C3=O)cc1 (centres unmarked) | 12.6
COc1ccccc1OCCNC(=O)C1CC(=O)N(c2cccc(SC)c2)C1 (centres unmarked) | -10.8
O=C1c2ccccc2C(=O)c2c1ccc(C(=O)N1CCCCC1)c2NCCO | -34.7
Cc1ccc(CNS(=O)(=O)c2c(C)nc3scc(C)n3c2=O)cc1 | 9.09
COc1cc2c(cc1OC)CN(c1ccc([N+](=O)[O-])cc1C#N)CC2 | -50
COc1ccc(C(=O)c2ccc(OC)c(N)c2)cc1N | -9.09
S=C1CCC(c2ccc(Cl)cc2)=NN1c1ccccc1 | 4.79
COc1ccc(OC)c(N2C(=O)CC(Cc3ccc(Cl)cc3)C2=O)c1 (centres unmarked) | -15.8

Structure (SMILES) | hERG current change (%, negative = inhibition) at 10uM [%]
CC(Cc1ccccc1Sc1ccc(O)cc1)N(C)C.CCO.Cl (centres unmarked) | -69.5
CCC(=O)NC(c1ccc(OC)cc1)c1c(O)ccc2ccccc12 (centres unmarked) | 3.82
O=C(NC(=S)Nc1cccc2cccnc12)c1cccs1 | -25.8
O=c1c2cc(NC(=S)NCCN3CCCCCC3)ccc2nc2n1CCCCC2 | -1.38
S=c1[nH]ncn1/N=C/c1ccc(N2CCOCC2)cc1 | 14.9
Cc1ccc(CNC(=O)CSc2ccc(-c3ccco3)nn2)cc1 | -16.1
Cc1ccc(C)c2[nH]c(=O)c(CCNC(=O)c3ccc(Br)o3)cc12 | 0.143
Cc1[nH]c2c(Cl)cccc2c(=O)c1CN1CCCC1 | -10.6
CCOc1cccc2c1OC1(CCCCC1)N1N=C(c3cccnc3)CC21 (centres unmarked) | -0.544
CCCCNC(=O)C1CC(c2ccccc2[N+](=O)[O-])=NO1 (centres unmarked) | 12.8
CC(OC(=O)c1cc(S(=O)(=O)N(C)c2ccccc2)ccc1Cl)C(=O)Nc1ccc2c(c1)OCCO2 (centres unmarked) | 10.8
Cc1ccc2nc(SC(C)C(=O)NC3CCCc4ccccc43)[nH]c2c1 (centres unmarked) | 3.25
CC(NC(=O)Cc1cccs1)C(c1cccs1)N1CCN(c2ccccc2)CC1 (centres unmarked) | -2.03
CCN(CC)c1ccc(NC(=O)c2cnccn2)cc1S(=O)(=O)Nc1ccc(OC)cc1 | -0.144
CC1CCCC(NC(=O)C2CCN(S(=O)(=O)N3CCCCCC3)CC2)C1C (centres unmarked) | -0.55
CN(CC(=O)Nc1cccc(F)c1)C(=O)CSc1nc2ccccc2s1 | -8.83
OCC[C@H]1C[C@H](O)[C@@H](O)[C@@]2(OCCCc3ccccc32)O1 | -8.97
Cn1ccnc1SCC(=O)Nc1cccc(S(=O)(=O)N2CCCCC2)c1 | 3.74
COc1cc(/C=C(\NC(C)=O)C(=O)NC(C)(C)C)ccc1OC(C)=O | 21.1
CCOC(=O)N1CCN(S(=O)(=O)c2ccc(C(=O)N(CCCN(C)C)c3nc4cc(OC)ccc4s3)cc2)CC1.Cl | -56.2
C/C(CC(=O)N(C(C)C)C(C)C)=N\NC(=O)COc1ccc(Br)cc1Br | -51.3
Cc1onc(C(=O)Nc2ccc3c(c2)OCO3)c1[N+](=O)[O-] | 12.5

Structure (SMILES) | hERG current change (%, negative = inhibition) at 10uM [%]
O=C(N=c1ccn(-c2nc3ccccc3nc2NS(=O)(=O)c2ccccc2)cc1)c1cccs1 | 31.2
CCOCC(=O)Nc1nnc(COC)s1 | 7.18
Cc1cc(OCC(=O)Nc2ccccc2C(N)=O)c2c(C)cc(=O)oc2c1 | -8.01
CCc1ccc(-c2nc(CN3CCCC(C(=O)O)C3)c(C)o2)cc1 (centres unmarked) | 14.2
Cc1ccc(S(=O)(=O)N[C@H](C(=O)N2CCC(C(=O)N[C@@H](CC(=O)O)C(=O)O)CC2)C(C)C)cc1 | 24.9
COc1ccc(/C=C2\SC(=S)N(CCC(=O)Nc3ccc(C(=O)O)cc3)C2=O)cc1 | 17.2
C=CCOc1ccc(CN(C)CC(=O)Nc2ccccc2[N+](=O)[O-])cc1.O=C(O)C(=O)O | -8.31
O=C(NCC1CCCO1)c1cc(S(=O)(=O)N2CCCCC2)ccc1Cl (centres unmarked) | -10
O=C(c1ccc([N+](=O)[O-])cc1)N1CCSC1c1ccc(Br)cc1 (centres unmarked) | -64.2
O=C(CSc1nc(O)cc(=O)n1-c1ccccc1)NC1CCCCC1 | 9.08
O=C(CCc1ccc(S(=O)(=O)NCCc2ccccc2)cc1)N1CCN(Cc2ccc3c(c2)OCO3)CC1 | -48.5
Cc1cccc(N2CCN(Cc3cc(=O)n4ccsc4n3)CC2)c1C | -37.1
O=C(Nc1ncccn1)c1cccc(Cl)c1 | 2.21
CC1CCCN(C2(O)C(=O)Nc3ccc(Cl)cc32)C1 (centres unmarked) | 2.56
Nc1c(C(=O)NCc2ccco2)nnn1CC(=O)Nc1ccccc1 | 15.9
C=CCOn1c(=O)c(=O)n(OCc2ccccc2)c2ccccc21 | -41.7
CCCn1c2ccccc2c2cnn(CC(=O)NC3CCCCC3C)c(=O)c21 (centres unmarked) | 11.7
O=C(COC(=O)CCNS(=O)(=O)c1ccccc1)NC(=O)c1ccccc1 | -2.52
CCn1cc(C(=O)N2CCN(c3ccc(C(C)=O)cc3)CC2)c2cc(OC)c(OC)cc2c1=O | -44.3
COC(=O)C1=C(C)NC(=S)NC1c1ccc(OC(=O)c2ccco2)cc1 (centres unmarked) | 9.33
